According to PMC4336329 (PLoS ONE, 2015):
The campaign covered roughly 310,000 compounds. About 2,200 (0.71%) showed an effect of 50% or more. Effects have a minus sign here. This is one part of the list.

These compounds were tested against human ether-à-go-go-related gene (hERG) potassium channel (human, UniProt Q12809) (assay: primary screen, population patch clamp on CHO cells stably expressing hERG).
Sequence of human ether-à-go-go-related gene (hERG) potassium channel (Q12809 whole entry, looked up): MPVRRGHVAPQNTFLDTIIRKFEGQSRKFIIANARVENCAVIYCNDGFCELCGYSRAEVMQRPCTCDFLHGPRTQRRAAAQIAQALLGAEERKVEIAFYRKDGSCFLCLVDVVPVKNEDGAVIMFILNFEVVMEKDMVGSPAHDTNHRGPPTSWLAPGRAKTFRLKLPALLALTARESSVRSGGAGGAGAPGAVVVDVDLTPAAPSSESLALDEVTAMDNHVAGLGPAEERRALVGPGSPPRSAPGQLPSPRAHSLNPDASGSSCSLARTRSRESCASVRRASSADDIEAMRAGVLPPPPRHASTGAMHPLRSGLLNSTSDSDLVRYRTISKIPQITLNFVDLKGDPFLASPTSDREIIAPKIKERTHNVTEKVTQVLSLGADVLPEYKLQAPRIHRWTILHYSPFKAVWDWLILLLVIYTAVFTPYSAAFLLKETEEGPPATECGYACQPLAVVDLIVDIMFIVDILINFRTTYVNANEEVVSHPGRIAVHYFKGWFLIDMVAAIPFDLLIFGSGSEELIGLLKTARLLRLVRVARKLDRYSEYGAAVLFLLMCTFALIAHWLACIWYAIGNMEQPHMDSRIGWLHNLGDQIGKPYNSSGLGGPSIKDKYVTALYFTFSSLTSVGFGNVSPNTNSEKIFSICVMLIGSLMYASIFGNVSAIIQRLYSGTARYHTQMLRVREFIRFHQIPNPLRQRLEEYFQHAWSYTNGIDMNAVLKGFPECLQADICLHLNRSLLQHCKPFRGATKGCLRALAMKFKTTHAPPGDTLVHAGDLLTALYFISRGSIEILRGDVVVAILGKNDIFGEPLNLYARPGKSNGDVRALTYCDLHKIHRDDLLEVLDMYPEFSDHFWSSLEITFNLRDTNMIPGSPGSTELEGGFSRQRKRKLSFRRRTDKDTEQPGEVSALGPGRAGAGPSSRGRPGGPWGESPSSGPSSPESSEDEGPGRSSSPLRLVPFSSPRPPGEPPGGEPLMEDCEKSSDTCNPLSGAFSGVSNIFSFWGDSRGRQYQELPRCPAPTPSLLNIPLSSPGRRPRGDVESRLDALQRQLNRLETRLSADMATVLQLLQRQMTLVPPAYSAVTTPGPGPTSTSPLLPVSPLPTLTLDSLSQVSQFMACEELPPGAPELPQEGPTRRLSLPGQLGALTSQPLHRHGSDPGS

**Q.** How did the “hERG current change (%, negative = inhibition) at 1uM” value turn out when `CCOC(=O)C1CCN(S(=O)(=O)c2cccc(-c3csc(C)n3)c2)CC1` was run?
**A.** Its value is 1.48%.

**Q.** With `Br.Cc1ccc(SCc2cn3c(C)csc3n2)cc1` as the compound, how does the “hERG current change (%, negative = inhibition) at 1uM” value read?
**A.** The value was 10.3%.

**Q.** With `O=C(CCN1C(=O)c2cccnc2C1=O)NC1CCCCCC1` as the compound, how does the “hERG current change (%, negative = inhibition) at 1uM” value read?
**A.** The value was 8.2%.

**Q.** For `CC(C)=C(NC(=O)c1ccccc1)C(=O)NCCCC(=O)O`, which “hERG current change (%, negative = inhibition) at 1uM” value is on record?
**A.** Its value is 12.4%.

**Q.** Which “hERG current change (%, negative = inhibition) at 1uM” value does the source give for `CCOC(=O)c1ccc(COC(=O)CCc2nc(-c3ccccc3)c(-c3ccccc3)o2)cc1` here?
**A.** Its value is -3.73%.

**Q.** How did the “hERG current change (%, negative = inhibition) at 1uM” value turn out when `COc1ccc(C(CC(=O)O)NC(=O)Cc2ccccc2)cc1` (centres unmarked) was run?
**A.** Its value is 6.67%.

**Q.** With `CSc1cccc(NC(=O)Cc2ccccc2[N+](=O)[O-])c1` as the compound, how does the “hERG current change (%, negative = inhibition) at 1uM” value read?
**A.** The value was 11.6%.

**Q.** With `COc1ccccc1/C=C1\SC(=S)N(CCC(=O)N2CCCCC2CCO)C1=O` (centres unmarked) as the compound, how does the “hERG current change (%, negative = inhibition) at 1uM” value read?
**A.** Its value is 12.4%.

**Q.** `Cc1ccc2oc(-c3ccc(NC(=O)c4ccc5c(c4)OCO5)cc3)nc2c1` was tested. Which “hERG current change (%, negative = inhibition) at 1uM” value did it give?
**A.** Its value is 13%.

**Q.** For `COc1ccc(C(=O)CCC(C)(C)[N+](=O)[O-])cc1`, which “hERG current change (%, negative = inhibition) at 1uM” value is on record?
**A.** Its value is 13.3%.

**Q.** With `CCCCN(c1nc2ccccc2nc1Cl)S(=O)(=O)c1ccc(C)cc1` as the compound, how does the “hERG current change (%, negative = inhibition) at 1uM” value read?
**A.** The value was 16.2%.

**Q.** How did the “hERG current change (%, negative = inhibition) at 1uM” value turn out when `COc1ccccc1C(=O)NC1CCN(C(=O)Nc2ccc(F)cc2)CC1` was run?
**A.** Its value is 4.21%.

**Q.** How did the “hERG current change (%, negative = inhibition) at 1uM” value turn out when `COc1ccc(Br)cc1S(=O)(=O)N1CC(C)OC(C)C1` (centres unmarked) was run?
**A.** Its value is 6.83%.

**Q.** For `O=C(CN1CCN(CCOCCO)CC1)N1c2ccccc2Sc2ccc(Cl)cc21`, which “hERG current change (%, negative = inhibition) at 1uM” value is on record?
**A.** The value was 0.749%.

**Q.** Which “hERG current change (%, negative = inhibition) at 1uM” value does the source give for `Cc1c(NC(=O)CSc2nc(-c3ccco3)cc(C(F)(F)F)n2)c(=O)n(-c2ccccc2)n1C` here?
**A.** Its value is -6.87%.

**Q.** With `COc1cccc(N=Cc2ccc(O)cc2O)c1` as the compound, how does the “hERG current change (%, negative = inhibition) at 1uM” value read?
**A.** The value was 13.4%.

**Q.** Which “hERG current change (%, negative = inhibition) at 1uM” value does the source give for `N#CC1=C(N)NC(SCc2ccccc2)=C(C#N)C12CCCCC2` here?
**A.** Its value is 14.7%.

**Q.** `CC(C)C(=O)c1cc2c(cc1NC(=O)c1cccs1)OCCO2` was tested. Which “hERG current change (%, negative = inhibition) at 1uM” value did it give?
**A.** The value was 5.69%.

**Q.** For `COc1ccc(NC2=CC(=O)CC(c3ccccc3)C2)c(OC)c1` (centres unmarked), which “hERG current change (%, negative = inhibition) at 1uM” value is on record?
**A.** The value was 10.3%.

**Q.** Which “hERG current change (%, negative = inhibition) at 1uM” value does the source give for `CCOC(=O)c1ccc(NC(=O)C(C)N2C(=O)c3ccccc3C2=O)cc1` (centres unmarked) here?
**A.** Its value is 13%.

**Q.** Which “hERG current change (%, negative = inhibition) at 1uM” value does the source give for `CCOC(=O)C1CCCN(C(=O)/C(=C/c2ccco2)NC(=O)c2ccccc2)C1` (centres unmarked) here?
**A.** Its value is 7.34%.

**Q.** How did the “hERG current change (%, negative = inhibition) at 1uM” value turn out when `O=c1[nH]c(=O)n(Cc2ccco2)c2c1C(C(F)(F)F)(C(F)(F)F)N=C(Cc1ccccc1)N2` was run?
**A.** Its value is 6.17%.

**Q.** Which “hERG current change (%, negative = inhibition) at 1uM” value does the source give for `CN(Cc1ccccc1)C(=O)CN1CCN(S(=O)(=O)c2ccc(Cl)c(Cl)c2)CC1` here?
**A.** Its value is 19.7%.

**Q.** With `O=C(COc1ccc(S(=O)(=O)N2CCCC2)cc1Cl)Nc1ccc2c(c1)OCO2` as the compound, how does the “hERG current change (%, negative = inhibition) at 1uM” value read?
**A.** Its value is 7.77%.

**Q.** For `CCOc1cc(Br)c(C(=O)O)cc1OC`, which “hERG current change (%, negative = inhibition) at 1uM” value is on record?
**A.** The value was -0.372%.

**Q.** For `Nc1ncnc(Nc2ccc(F)c(Cl)c2)n1`, which “hERG current change (%, negative = inhibition) at 1uM” value is on record?
**A.** Its value is 12.8%.

**Q.** For `COc1cccc(CN(C)C(c2ccccc2)c2ccccc2)c1OC`, which “hERG current change (%, negative = inhibition) at 1uM” value is on record?
**A.** Its value is 8.17%.

**Q.** Which “hERG current change (%, negative = inhibition) at 1uM” value does the source give for `CCN(CC1COc2ccccc2O1)S(=O)(=O)c1ccc(C)cc1` (centres unmarked) here?
**A.** The value was 7.11%.

**Q.** For `CCN(CC)C(=O)C(=O)c1cccn1-c1cccc(OC)c1C#N`, which “hERG current change (%, negative = inhibition) at 1uM” value is on record?
**A.** The value was 12.4%.

**Q.** Which “hERG current change (%, negative = inhibition) at 1uM” value does the source give for `CNc1nc(C)c(C#N)c(-c2ccccc2)c1C(C)=O` here?
**A.** The value was -3.15%.

**Q.** With `Cc1sc2ncnc(N(C)CCc3ccccn3)c2c1C.O=C(O)C(=O)O` as the compound, how does the “hERG current change (%, negative = inhibition) at 1uM” value read?
**A.** The value was 18.8%.

**Q.** How did the “hERG current change (%, negative = inhibition) at 1uM” value turn out when `C/C=C(/C)C(=O)Nc1cccc(C2=NOC3(C2)C[C@@H](C(N)=O)N(C(=O)/C=C/CC)C3)c1` (some centres unmarked) was run?
**A.** Its value is 14.8%.

**Q.** Which “hERG current change (%, negative = inhibition) at 1uM” value does the source give for `O=C(O)C1=C[C@H](c2ccccc2)C[C@H](OCCCCO)O1` here?
**A.** Its value is 13.9%.

**Q.** With `COc1ccc(N=C2O/C(=C/c3sc(=S)n(CC4CCCO4)c3O)N=C2C#N)cc1` (centres unmarked) as the compound, how does the “hERG current change (%, negative = inhibition) at 1uM” value read?
**A.** Its value is 11.8%.

**Q.** With `CC(C)CN(Cc1c(O)ccc2ccccc12)CC(C)C` as the compound, how does the “hERG current change (%, negative = inhibition) at 1uM” value read?
**A.** Its value is 18%.

**Q.** Which “hERG current change (%, negative = inhibition) at 1uM” value does the source give for `Cc1nc(Cl)c(N=Cc2cccc([N+](=O)[O-])c2)c(Cl)n1` here?
**A.** Its value is 18.3%.

**Q.** How did the “hERG current change (%, negative = inhibition) at 1uM” value turn out when `c1ccc2c(c1)Nc1cc3ccccc3cc1S2` was run?
**A.** Its value is 14%.

**Q.** With `Cc1ccc(C)c(S(=O)(=O)N2CCCCC2CCNC(=O)C(=O)NC2CCCC2)c1` (centres unmarked) as the compound, how does the “hERG current change (%, negative = inhibition) at 1uM” value read?
**A.** The value was 0.948%.

**Q.** `CCc1nc(NCCCCCO)c2nnn(Cc3ccccc3F)c2n1` was tested. Which “hERG current change (%, negative = inhibition) at 1uM” value did it give?
**A.** Its value is 0.555%.

**Q.** For `CC(=O)c1c(OC(=O)c2ccc(C)cc2)c2ccccc2n1C`, which “hERG current change (%, negative = inhibition) at 1uM” value is on record?
**A.** Its value is 12.8%.

**Q.** `CC(C)CN1C(=O)c2ccc(C(=O)Nc3ccc(OCC(=O)O)cc3)cc2C1=O` was tested. Which “hERG current change (%, negative = inhibition) at 1uM” value did it give?
**A.** The value was 8.65%.

**Q.** For `CCOc1ccc(CNC(=S)N/N=C/c2ccncc2)cc1`, which “hERG current change (%, negative = inhibition) at 1uM” value is on record?
**A.** The value was 4.46%.

**Q.** With `CC(=O)Nc1ccc(C(=O)CSc2nnc(-c3ccc(O)cc3)n2CC2CCCO2)cc1` (centres unmarked) as the compound, how does the “hERG current change (%, negative = inhibition) at 1uM” value read?
**A.** Its value is 10.9%.

**Q.** With `CC1=NN2C(=N)/C(=C\c3ccc(SCc4ccccc4)o3)C(=O)N=C2S1` as the compound, how does the “hERG current change (%, negative = inhibition) at 1uM” value read?
**A.** Its value is 1.92%.

**Q.** For `COc1ccc(OC)c(-c2csc(NC(=O)COC(=O)C3(C)CC3(Cl)Cl)n2)c1` (centres unmarked), which “hERG current change (%, negative = inhibition) at 1uM” value is on record?
**A.** Its value is -2.16%.

**Q.** How did the “hERG current change (%, negative = inhibition) at 1uM” value turn out when `NC(=O)c1c(-c2ccc(Cl)cc2Cl)csc1NC(=O)Cc1ccccc1` was run?
**A.** Its value is 7.98%.

**Q.** With `O=C(Nc1cccc(C(F)(F)F)c1)C1CCCN(c2ncccn2)C1` (centres unmarked) as the compound, how does the “hERG current change (%, negative = inhibition) at 1uM” value read?
**A.** Its value is -1.28%.

**Q.** With `COc1cccc(OC(=O)CSc2nnc(-c3ccccc3Br)o2)c1` as the compound, how does the “hERG current change (%, negative = inhibition) at 1uM” value read?
**A.** The value was 6.82%.

**Q.** How did the “hERG current change (%, negative = inhibition) at 1uM” value turn out when `Cc1ccc(CNC(=O)Cn2c(=O)oc3ccccc32)o1` was run?
**A.** Its value is 3.37%.

**Q.** For `O=C(COC(=O)Cn1cnc2ccccc21)Nc1cccc(S(=O)(=O)N2CCOCC2)c1`, which “hERG current change (%, negative = inhibition) at 1uM” value is on record?
**A.** Its value is 12.6%.

**Q.** For `O=C(COC(=O)CC(c1ccccc1)c1ccccc1)Nc1cccc(F)c1`, which “hERG current change (%, negative = inhibition) at 1uM” value is on record?
**A.** Its value is 18.5%.

**Q.** With `O=C(Nc1nnc(COc2ccc(Cl)cc2)s1)c1ccc([N+](=O)[O-])cc1` as the compound, how does the “hERG current change (%, negative = inhibition) at 1uM” value read?
**A.** Its value is 4.14%.

**Q.** For `C=CCNc1sc(C(=O)c2ccc(C)cc2)c(N)c1C#N`, which “hERG current change (%, negative = inhibition) at 1uM” value is on record?
**A.** Its value is 6.47%.

**Q.** With `O=C1CCC([N+](=O)[O-])C(C2CC=CCC2)N1` (centres unmarked) as the compound, how does the “hERG current change (%, negative = inhibition) at 1uM” value read?
**A.** The value was 14.6%.

**Q.** Which “hERG current change (%, negative = inhibition) at 1uM” value does the source give for `NS(=O)(=O)c1ccc(CNC(=O)CCC2CCCCC2)cc1` here?
**A.** The value was 6.44%.

**Q.** Which “hERG current change (%, negative = inhibition) at 1uM” value does the source give for `Cc1ccc(NC(=O)CSc2nc(O)c(Cc3ccccc3)c(=O)n2-c2ccccc2)cc1` here?
**A.** Its value is 17.9%.
